According to the supplement of paper PMC12217912:
This is one part of the list. The full chains were built here from the parent and the listed change. Values near 0.05 are background.

B1: TEV protease; numbered along this chain (parent)
chain: MGESLFKGPRDYNPISSSICHLTNESDGHTTSLYGIGFGPFIITNKHLFRRNNGTLVVQSLHGVFKVKDTTTLQQHLVDGRDMIIIRMPKDFPPFPQKLKFREPQREERICLVTTNFQTKSMSSMVSDTSCTFPSGDGIFWKHWIQTKDGQCGSPLVSTRDGFIVGIHSASNFTNTNNYFTSVPKNFMELLTNQEAQQWVSGWRLNADSVLWGGHKVFMVKPEEPFQPVKEATQL

Variants of: B1
Assay: raw area under fraction-flipped curve 0-4 h after induction (AUC4h, not background-subtracted), DNA-recorder readout of cleavage of the substrate (dimensionless); higher = more cleavage of the substrate by the protease variant
Conditions: temperature: 34 °C; time window: 0-4 h after rhamnose induction
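Note: Bxb1 expression induced with 0.2% (w/v) L-rhamnose at OD600 near 0.5, cultures sampled hourly, flipped fraction per protease–substrate barcode pair counted by paired-end Illumina sequencing.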

Variant | area with substrate ENLYFQI | area with substrate ENLYFQL | area with substrate ENLYFQM | area with substrate ENLYFQQ | area with substrate ENLYFQS | area with substrate ENLYFQV | area with substrate ENLYFQW | area with substrate ENLYFQD | area with substrate ENLYFQG | area with substrate ENLYFQH
F65D | 0.0565 | 0.0597 | 0.0611 | 0.0688 | 0.0829 | 0.0588 | 0.0511 |  |  | 
Q151D | 0.0649 | 0.0648 | 0.097 |  | 0.105 | 0.126 | 0.0718 | 0.0888 | 0.0845 | 0.0833
S123Y | 0.0496 | 0.0585 |  |  | 0.108 |  | 0.0607 |  |  | 
T119D |  | 0.0606 | 0.0671 |  | 0.0958 |  |  | 0.0478 |  | 0.0862
K68P | 0.0477 | 0.0628 | 0.106 |  | 0.111 |  | 0.053 |  | 0.118 | 0.108
F140Y | 0.0528 | 0.048 |  | 0.0635 | 0.0904 |  |  | 0.0597 |  | 0.0722
T174Q |  | 0.0589 | 0.102 |  | 0.0912 | 0.0421 |  | 0.0698 | 0.102 | 0.0752
E107I | 0.0558 |  |  |  | 0.0917 |  |  |  | 0.113 | 
V157P |  | 0.0515 | 0.0522 |  | 0.0509 | 0.0537 |  |  | 0.0428 | 
G37Y | 0.0331 | 0.0709 |  |  | 0.0629 |  | 0.047 |  | 0.05 | 0.0687
M188A | 0.045 | 0.0668 | 0.0583 | 0.0728 | 0.0968 | 0.0364 | 0.0634 |  | 0.0772 | 
L205T | 0.05 |  |  |  | 0.0765 | 0.0601 |  | 0.0554 |  | 
L205I | 0.062 | 0.0655 |  |  | 0.0981 |  |  |  |  | 
L205K |  |  |  |  | 0.0631 | 0.0518 |  |  | 0.0515 | 

Same assay, conditions: temperature: 34 °C; time window: 0-4 h after rhamnose induction

Variant | area with substrate ENLYFQN | area with substrate ENLYFQP | area with substrate ENLYFQT | area with substrate ENLYFQY | area with substrate ENLYFQK | area with substrate ENLYFQR | area with substrate ENLYFQE | area with substrate ENLYFQF
Q151D | 0.0789 | 0.0595 | 0.0495 | 0.0861 |  |  |  | 
S123Y |  | 0.065 |  |  | 0.0519 | 0.0604 |  | 
T119D |  | 0.038 |  | 0.0766 |  | 0.0632 |  | 
K68P | 0.0685 | 0.0505 | 0.0667 |  |  | 0.0322 | 0.109 | 0.0871
F140Y |  |  |  | 0.0561 | 0.0667 | 0.0559 |  | 
T174Q | 0.0654 |  |  |  | 0.0748 | 0.0621 |  | 
E107I |  |  | 0.0629 | 0.0604 | 0.0562 |  | 0.0634 | 
V157P | 0.0487 |  | 0.047 | 0.0651 | 0.0507 | 0.0513 |  | 
G37Y |  |  | 0.0454 |  | 0.0454 | 0.0341 |  | 0.0625
M188A | 0.0711 |  | 0.0634 |  | 0.0538 | 0.0597 |  | 
L205I |  |  | 0.063 |  |  |  |  | 
L205K |  |  | 0.0515 |  |  | 0.0719 |  | 
